# Counter-ions that a name gives are not always drawn. ± gives the standard deviation of the averaged measurements. In all, about 3,100 compounds were measured (“mean cytoplasmic OPP incorporation (global translation) relative to DMSO”: median about 100, lowest 2% from about 56 on). Some of the results follow. Square brackets hold non-standard residues; d marks the D form. Peptide text beside a SMILES is read from it.
# System: U2OS
# Experiment: mean cytoplasmic OPP incorporation (global translation) relative to DMSO (% of DMSO); higher = more protein synthesis
# Settings: 10 µM; 24 h
# Protocol: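 Primary image-based screen in U2OS cells: compounds at 10 uM for 24 h, then a 1 h o-propargyl-puromycin (OPP) pulse, click labelling, and high-throughput microscopy. Mean cytoplasmic OPP intensity and nuclei count were normalised to DMSO wells within each plate (DMSO = 100) and averaged over triplicate plates.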
row,Structure (SMILES),mean cytoplasmic OPP incorporation
1,Oc1cc2c(cc1O)CN(C(=S)NCCc1ccc(Cl)cc1)CCC2 [Capsazepine],94.9
2,CCCCCCC(=O)OC1CC(C)(C)NC(C)(C)C1 [TMPH hydrochloride],101
3,CCN(CCN(C)C)C(=O)CNCc1cc(C(N)=O)ccn1,96.2
4,CC(=O)O[C@H]1C[C@@H]2CC[C@@H]3[C@H](CC[C@@]4(C)[C@H]3C[C@H]([N+]3(C)CCCCC3)[C@@H]4OC(C)=O)[C@@]2(C)C[C@@H]1N1CCCCC1 [Vecuronium bromide],102
5,CC(=O)O[C@H]1C[C@@H]2CC[C@@H]3[C@H](CC[C@@]4(C)[C@H]3C[C@H]([N+]3(C)CCCCC3)[C@@H]4OC(C)=O)[C@@]2(C)C[C@@H]1N1CCCCC1 [Vecuronium Bromide],100
6,CCCCCCCC/C=C\CCCCCCCC(=O)NCCO [Oleylethanolamide],105
7,CCCCCCCC/C=C\CCCCCCCC(=O)NCCO [N-Oleoylethanolamide],99.6
8,C[C@@H](O)[C@H]1C(=O)N2C(C(=O)O)=C(S[C@@H]3CN[C@H](C(=O)N(C)C)C3)[C@H](C)[C@H]12 [Meropenem],106 ± 6.2
9,CC(=O)NCC(=O)N[C@H](CCC(=O)O)C(=O)O [N-Acetylglycyl-D-glutamic acid] (Ac-Gly-[dE]-OH),102
10,C[C@@H]1O[C@@H](OC[C@H]2O[C@@H](Oc3c(-c4ccc(OCCO)c(OCCO)c4)oc4cc(OCCO)cc(O)c4c3=O)[C@H](O)[C@@H](O)[C@@H]2O)[C@H](O)[C@H](O)[C@H]1O [Troxerutin],103
11,CCN(CC)C(=O)/C(C#N)=C/c1cc(O)c(O)c([N+](=O)[O-])c1 [Entacapone],103
12,C[C@]12C=CC(=O)C=C1CC[C@H]1[C@@H]3C[C@@H](O)[C@](O)(C(=O)CO)[C@@]3(C)C[C@H](O)[C@@]12F [Triamcinolone (Aristocort)],88.3
13,C[C@]12C=CC(=O)C=C1CC[C@H]1[C@@H]3C[C@@H](O)[C@](O)(C(=O)CO)[C@@]3(C)C[C@H](O)[C@@]12F [Triamcinolone],101
14,CC1(C)O[C@@H]2C[C@H]3[C@@H]4CCC5=CC(=O)CC[C@]5(C)[C@@]4(F)[C@@H](O)C[C@]3(C)[C@]2(C(=O)CCl)O1 [Halcinonide],109
15,OCCN1CCN(CCCN2c3ccccc3C=Cc3ccccc32)CC1 [Opipramol dihydrochloride],110
16,COc1cccc(Nc2c(C(N)=O)cnc3c(C)cc(S(=O)(=O)c4cccc(C(=O)N(C)C)c4)cc23)c1,114
17,O=C(O)C=C1CCCc2ccccc2C1O (configuration not stated),98.2
18,CC(=O)CCCCn1c(=O)c2c(ncn2C)n(C)c1=O [Pentoxifylline],94.3
19,CN1C(=O)OC(C)(C)C1=O [Trimethadione],101
20,CN(C/C=C/c1ccccc1)Cc1cccc2ccccc12 [Naftifine hydrochloride],103
21,COc1cc2c(cc1OCCCN1CCCC1)N=C(N)C21CCC1,91.2
22,O=c1c(-c2ccc(O)cc2)coc2cc(O)ccc12 [Daidzein],103
23,O=C(O)CCCCC(CCSCc1ccccc1)SCc1ccccc1 (configuration not stated),99.7
24,CC(C)NC[C@H](O)COc1cccc2ccccc12 [(S)-propranolol hydrochloride],115

row,Structure (SMILES),mean cytoplasmic OPP incorporation
1,CC(C)NC[C@H](O)COc1cccc2ccccc12 [(S)-(-)-Propranolol hydrochloride],105
2,CC(C)(C)c1nc(-c2cccc(NS(=O)(=O)c3c(F)cccc3F)c2F)c(-c2ccnc(N)n2)s1,119 ± 2.5
3,C[C@H]1O[C@@H](n2cc(F)c(=O)[nH]c2=O)[C@H](O)[C@@H]1O [Doxifluridine],99.4
4,CC(=O)N(OCc1ccccc1)[C@H]1c2cc(C#N)ccc2OC(C)(C)[C@H]1O,95.4
5,N[C@@H](Cc1cc(CP(=O)(O)O)cc(-c2ccccc2Cl)c1)C(=O)O,103
6,OCC1OC(n2cnc3c(NC4CCCC4)nc(Cl)nc32)C(O)C1O (configuration not stated) [2-Chloro-N6-cyclopentyladenosine],116
7,O=C(O)C1=CO[C@@H](O[C@@H]2O[C@H](CO)[C@@H](O)[C@H](O)[C@H]2O)[C@@H]2C(CO)=CC[C@H]12 [Geniposidic acid],101
8,Cc1ccnc(NS(=O)(=O)c2ccc(NC(=O)Nc3ccc(S(=O)(=O)Nc4nccc(C)n4)cc3)cc2)n1,96.2
9,CCN1CCCC(OC(=O)C(c2ccccc2)c2ccccc2)C1 (configuration not stated) [Piperidolate hydrochloride],122
10,CC(C)c1ccc2c(c1)CC[C@H]1[C@](C)(CN)CCC[C@]21C [Lylamine hydrochloride],122
11,COc1c(C)c2c(c(O)c1C/C=C(\C)CCC(=O)O)C(=O)OC2 [Mycophenolic acid],65.8
12,CS(=O)(=O)c1ccc(-c2cnc(N)c(C(=O)Nc3ccccc3)n2)cc1,115 ± 6.1
13,NS(=O)(=O)c1cc(Cl)c(Cl)c(S(N)(=O)=O)c1 [Dichlorphenamide],106
14,O=C(c1ccc(/C=C/c2n[nH]c3ccccc23)cc1)N1CCNCC1,72.1
15,C/C(=C\C(=O)Nc1ccccc1C(=O)O)c1ccc2ccccc2c1,93.1
16,"C[C@]12CC[C@@H](O)C[C@@H]1CC[C@@H]1[C@@H]2CC[C@]2(C)C=CC[C@@H]12 [3a, 5a-Androstenol]",97.3
17,Cc1ccc(-n2sc(=O)n(Cc3ccc(F)cc3)c2=O)cc1,103
18,Cc1cc(Cl)ccc1OCCCC(=O)NO [Droxinostat],92.7
19,O=C(NCCN1CCOCC1)c1ccc(Cl)cc1 [Moclobemide],91.9
20,CN(C)CCCSC(=N)N [Dimaprit dihydrochloride],97.9 ± 1.2
21,C[C@H](Cc1cc2c(c(C(N)=O)c1)N(CCCO)CC2)NCCOc1ccccc1OCC(F)(F)F [Silodosin (Rapaflo)],115
22,C=CCNC(=O)c1cc([N+](=O)[O-])cc2c(=O)[nH]c(Nc3ccc(Cl)c(Cl)c3)nc12,95.4
23,Cc1onc(-c2c(F)cccc2Cl)c1C(=O)N[C@@H]1C(=O)N2[C@@H]1SC(C)(C)[C@@H]2C(=O)O [Flucloxacillin sodium],100
